Data published in ChEMBL document CHEMBL4888484, “Replenishing the malaria drug discovery pipeline: Screening and hit evaluation of the MMV Hit Generation Library 1 (HGL1) against asexual blood stage Plasmodium falciparum ,using a nano luciferase reporter read-out” (2022).
The campaign covered roughly 150,000 compounds. About 540 (0.36%) showed an effect of 50% or more. Some of the results follow.

The molecules below were run on Plasmodium falciparum (assay: Primary screen in NF54 nanoGlo assay, in single point, at 2uM, 72h; a lower Z score goes with more inhibition). Conditions: timepoint 72 hour.
Format: functional, Erythrocyte
With `CN(C)C(=O)N1CCC(OCc2ccc(F)cc2)CC1` the “% Inhibition” value was -10% and the Z score was 1.99.
For `CCn1cc(CN(Cc2cc(OC)ccn2)CC(C)C)cn1`, the “% Inhibition” value was -13% and the Z score was 2.49.
In the case of `CN(C)C[C@@]12CN(Cc3ccccc3)C[C@@H]1CN(C(=O)c1ccccn1)C2`, the “% Inhibition” value is reported as -3% and the Z score is reported as 0.46.
With `CC1CC1c1ccc(CN(C)S(=O)(=O)N(C)C)o1` (stereo not drawn) the “% Inhibition” value was -6% and the Z score was 0.62.
For `O=c1c2ccccc2sn1Cc1noc([C@@H]2CCCO2)n1`, the “% Inhibition” value was -11% and the Z score was 1.93.
For `O=C(Nc1cnn2c1CCCC2)c1cccn1Cc1ccccc1`, the “% Inhibition” value was -6% and the Z score was 0.98.
In the case of `Cn1cccc(C(=O)N2CCc3cc(-c4ccncc4)ccc32)c1=O`, the “% Inhibition” value is reported as 3% and the Z score is reported as -0.6.
`COc1ccc(N2CCN(C(=O)CCC(=O)N3CCNC(=O)C3)CC2)cc1` was tested, and the “% Inhibition” value was -4% and the Z score was 0.59.
With `O=S(=O)(c1ccc2c(c1)CCC2)N1CC(Cc2nc(-c3cccnc3)no2)C1` the “% Inhibition” value was -1% and the Z score was 0.12.
In the case of `CCCCc1ccc(N2CC(C(=O)N3CCC(CO)C3)CC2=O)cc1` (stereo not drawn), the “% Inhibition” value is reported as -16% and the Z score is reported as 1.43.
For `CCCc1nnc(NC(=O)c2ccc3ccccc3n2)s1`, the “% Inhibition” value was -10% and the Z score was 2.05.
With `CC(C)C(=O)N1CCc2ccc(OC(C)C(=O)N3CCOCC3)cc2C1c1ccccc1` (stereo not drawn) the “% Inhibition” value was -11% and the Z score was 1.6.
`C=CCC1(OC)CCN(C[C@]2(O)CCCN(CCc3ccccc3)C2=O)CC1` was tested, and the “% Inhibition” value was -8% and the Z score was 1.09.
In the case of `Cc1n[nH]c(C)c1CN[C@H]1CCCC[C@@H]1F`, the “% Inhibition” value is reported as -13% and the Z score is reported as 1.51.
With `CC(C)NC(=O)NC[C@H]1O[C@@H](CO)[C@@H](O)[C@H]1N1CCN(c2ccccn2)CC1` the “% Inhibition” value was 11% and the Z score was -1.3.
For `CC(C)Cn1ncnc1Cn1cnccc1=O`, the “% Inhibition” value was -4% and the Z score was 0.59.
In the case of `CN(C)S(=O)(=O)N(C)CCOC(=O)c1cccc(-n2ccnc2)n1`, the “% Inhibition” value is reported as -18% and the Z score is reported as 1.64.
With `COc1ccc(C(=O)N[C@H]2CCCc3ccc(F)cc32)nn1` the “% Inhibition” value was -5% and the Z score was 0.7.
In the case of `O=C1CC(C(=O)N[C@H]2CCN(c3ccc(F)c(Cl)c3)C2=O)C1`, the “% Inhibition” value is reported as -5% and the Z score is reported as 0.84.
In the case of `C[C@]1(NC(=O)c2ccn(C3CCCCC3)n2)CCNC1=O`, the “% Inhibition” value is reported as -8% and the Z score is reported as 1.55.
`Cc1cc(=O)c(C(=O)N(C)Cc2noc(-c3ccccc3)n2)c[nH]1` was tested, and the “% Inhibition” value was -18% and the Z score was 2.09.
For `CC(C)COC1CCN(Cc2ccc(OCc3ccccc3F)nc2)CC1`, the “% Inhibition” value was -9% and the Z score was 1.24.
For `Cc1ncsc1CCNc1ncc(F)c(N(C)C)n1`, the “% Inhibition” value was -2% and the Z score was 0.38.
With `O=C(CN1CCN(C(=O)Nc2ccc(F)cc2)CC1=O)N1CCN(c2ccccc2)CC1` the “% Inhibition” value was -11% and the Z score was 1.99.
`O=C(NCCn1ccnc1)c1ccc2c(c1)OCCO2` was tested, and the “% Inhibition” value was -5% and the Z score was 1.04.
`CCOC(C)c1nc(CN(C)C(=O)C2CCCOC2)cs1` (stereo not drawn) was tested, and the “% Inhibition” value was -5% and the Z score was 0.54.
For `NC(=O)CCN[C@@H](CCCc1ccccc1)c1ccccc1`, the “% Inhibition” value was -3% and the Z score was 0.31.
`NC(=NCCc1nccn1Cc1ccccc1)N1CCCCCC1` was tested, and the “% Inhibition” value was 1% and the Z score was -0.12.
For `N#Cc1c(-c2ccc(Cl)cc2Cl)cc(-c2ccncc2)nc1N`, the “% Inhibition” value was 2% and the Z score was -0.22.
For `COc1ccc(C2(C(=O)N(C)c3ccn(C)n3)CC3(CCC3)C2)cc1`, the “% Inhibition” value was -9% and the Z score was 1.05.
`COCc1ccc(C(=O)N[C@H]2CC[C@@H](C(=O)NCCn3cccn3)C2)o1` was tested, and the “% Inhibition” value was -9% and the Z score was 1.08.
`COc1ccccc1NC(=O)C[C@H]1C(=O)Nc2c(C)c(-c3ccc(F)cc3)nn21` was tested, and the “% Inhibition” value was -7% and the Z score was 1.12.
`CN(CCO)C[C@H](O)c1ccccc1Cl` was tested, and the “% Inhibition” value was -12% and the Z score was 1.89.
For `CN(C)c1ccc2c(c1)OCCN2CC(=O)Nc1cc(Cl)ccc1-n1cncn1`, the “% Inhibition” value was 1% and the Z score was -0.11.
For `O=C(Cn1c(-c2cccs2)cc2cc(Cl)ccc21)N1CCN(c2ccccc2F)CC1`, the “% Inhibition” value was 17% and the Z score was -2.15.
In the case of `Cc1noc(C)c1[C@@H](C)CNC(=O)c1c(O)cc(Cl)cc1Cl`, the “% Inhibition” value is reported as -13% and the Z score is reported as 2.51.
With `CCCCc1nc(CN2CCCn3nc(CNC(=O)N(C)C)cc3C2)c[nH]1` the “% Inhibition” value was -18% and the Z score was 2.6.
For `COc1cccc(S(=O)(=O)N2CCN(C)[C@@H]3CS(=O)(=O)C[C@@H]32)c1`, the “% Inhibition” value was -3% and the Z score was 0.35.
`OCC#Cc1ccc(CN2CCCC[C@@H]2CN2CCCC2)s1` was tested, and the “% Inhibition” value was -4% and the Z score was 0.85.
With `COc1cccc(-n2ccc(=O)c(-c3nc(-c4ccc(C)c(C)c4)no3)n2)c1` the “% Inhibition” value was 5% and the Z score was -0.85.
With `COc1ccc(Cn2ncc(C)c2NC(=O)[C@H](C)n2cncn2)cc1OC` the “% Inhibition” value was -4% and the Z score was 0.44.
`CCCN(C)CC1(O)CCC2(CCN(C(=O)CCc3ccccc3)CC2)CC1` was tested, and the “% Inhibition” value was 7% and the Z score was -0.9.
In the case of `CC(=O)N1CCC[C@H](Nc2nc(-c3ccncc3)nc3c2CCNC3)C1`, the “% Inhibition” value is reported as 0% and the Z score is reported as -0.02.
`O=C(CC(c1ccccc1)c1ccccc1)N1CC(=O)N2CCc3ccccc3[C@@H]2C1` was tested, and the “% Inhibition” value was 39% and the Z score was -5.29.
In the case of `OCC[C@H]1CN(Cc2cc3ccccc3[nH]2)CCN1Cc1ccc(F)c(F)c1`, the “% Inhibition” value is reported as -8% and the Z score is reported as 1.01.
In the case of `Cc1c(NS(=O)(=O)C[C@H]2CCCCO2)cnc2[nH]ccc12`, the “% Inhibition” value is reported as -14% and the Z score is reported as 1.52.
For `CCS(=O)(=O)N1CCC[C@H](COCc2ccccc2)C1`, the “% Inhibition” value was -5% and the Z score was 0.74.
With `CN(C)[C@H]1CCN(C(=O)c2cn(CCCc3ccccc3)nn2)C1` the “% Inhibition” value was -12% and the Z score was 1.1.
For `CN1C[C@@H]2CC[C@H]1CN(S(=O)(=O)c1ccc3c(c1)NC(=O)CO3)C2`, the “% Inhibition” value was 2% and the Z score was -0.42.
For `O=C(c1ccc(Cl)cc1)N1C[C@]2(CO)CCCC[C@]2(CO)C1`, the “% Inhibition” value was -11% and the Z score was 1.22.
With `Cc1oc2ncnc(Oc3ccccc3Cl)c2c1C` the “% Inhibition” value was 3% and the Z score was -0.41.
For `CC(C(=O)N(C)C1CCCCC1)N1CCCC(Cc2nnn[nH]2)C1` (stereo not drawn), the “% Inhibition” value was -10% and the Z score was 1.9.
For `O=C(CN1CCC(O)CC1)Nc1ccc(Cl)cn1`, the “% Inhibition” value was -7% and the Z score was 1.43.
`CN1CCC[C@H](NC(=O)CCn2cccn2)C1=O` was tested, and the “% Inhibition” value was -3% and the Z score was 0.43.
`CN(C)Cc1nnc([C@H]2C[C@@H](NC(=O)c3cnc4c(c3)CCC4)C2)n1C` was tested, and the “% Inhibition” value was -18% and the Z score was 1.83.
In the case of `CC(C)n1cnc2ccc(CNc3ccc4nnnn4n3)cc21`, the “% Inhibition” value is reported as 1% and the Z score is reported as -0.15.
`C[C@@H](c1ccccc1)n1cnc2c1c(=O)n(CC1CC1)c(=O)n2-c1ccccc1` was tested, and the “% Inhibition” value was 1% and the Z score was -0.14.
With `CC[C@H](C)NS(=O)(=O)c1cc(-c2nc(C)c(C(=O)N3CCOCC3)s2)n(C)c1C` the “% Inhibition” value was 2% and the Z score was -0.21.
`O=C(NCCN1CCCC1=O)c1ccc(-c2cnc3nncn3c2)cc1` was tested, and the “% Inhibition” value was 1% and the Z score was -0.25.
In the case of `Cc1cnc(CNCCCOC2CCCCC2)o1`, the “% Inhibition” value is reported as -7% and the Z score is reported as 0.96.
With `Cc1cc(C)cc(CCNC(=O)CN(C)S(C)(=O)=O)c1` the “% Inhibition” value was -4% and the Z score was 0.7.
In the case of `CN1C(=O)[C@@H]2CC[C@H]1CN(C(=O)NCc1ccc(F)cc1)C2`, the “% Inhibition” value is reported as -11% and the Z score is reported as 1.6.
With `CCOC(=O)c1nn(-c2ccc(C(=O)NCCC(c3ccccc3)c3ccccc3)cc2)c(C)c1Cl` the “% Inhibition” value was -8% and the Z score was 1.14.
`N#CC1N(C(=O)[C@@H]2C[C@H]2c2ccc(F)cc2)CCCC12CCCCO2` (stereo partly drawn) was tested, and the “% Inhibition” value was 4% and the Z score was -0.41.
For `COC(C)(C)CCN1CCOC[C@@]1(CO)CNC(=O)OC(C)(C)C`, the “% Inhibition” value was 23% and the Z score was -2.95.
In the case of `Cc1cc(C)n(CCC(=O)N2CCC(n3c(=O)[nH]c4ccc(F)cc4c3=O)CC2)n1`, the “% Inhibition” value is reported as -6% and the Z score is reported as 1.07.
With `Cc1cnc(N2CCN([C@@H](C)C(=O)Nc3nccs3)CC2)s1` the “% Inhibition” value was -6% and the Z score was 1.22.
In the case of `O=C(CCn1cnc2cc(-c3noc(-c4ccccn4)n3)ccc21)N1CCOCC1`, the “% Inhibition” value is reported as -9% and the Z score is reported as 1.86.
`CN(C)CC(=O)NC1(Cc2cccc(F)c2)CCC1` was tested, and the “% Inhibition” value was -4% and the Z score was 0.67.
With `Cc1nc(N2CCC(c3nc4ccccc4o3)CC2)c2cccnc2n1` the “% Inhibition” value was -13% and the Z score was 1.22.
With `Cc1nc(N2CCC(C)CC2)ncc1-c1cc(=O)[nH]c(Nc2ccccc2Cl)n1` the “% Inhibition” value was -9% and the Z score was 1.34.
For `COc1ccc(-c2nccn3cc(C(=O)N4CCN(c5cccc(OC)c5)CC4)nc23)cc1`, the “% Inhibition” value was 37% and the Z score was -4.16.
In the case of `CCc1nc(C#N)cc(Oc2cccc3c2OCCC3)n1`, the “% Inhibition” value is reported as -8% and the Z score is reported as 1.48.
`C=CCS(=O)(=O)NC(=O)c1cc(C)c(C)cc1Cl` was tested, and the “% Inhibition” value was 38% and the Z score was -4.32.
For `Cn1cc(-c2ccc(CNS(=O)(=O)c3cnn(C)c3)cn2)cn1`, the “% Inhibition” value was 3% and the Z score was -0.46.
`CCc1nn(C)cc1CNC(=O)NC[C@H](C)c1ccsc1` was tested, and the “% Inhibition” value was 5% and the Z score was -0.76.
With `COCc1c(C(=O)NCCN2CCOCC2)cnn1-c1nccc(-c2ccccc2F)n1` the “% Inhibition” value was -3% and the Z score was 0.48.
In the case of `Cc1c(CNC(=O)c2cncc3ncn(C)c23)cnn1C`, the “% Inhibition” value is reported as 2% and the Z score is reported as -0.28.
In the case of `Cc1oncc1CNC(=O)COc1ccc(Cl)cc1`, the “% Inhibition” value is reported as -7% and the Z score is reported as 1.1.
With `COCCn1nnnc1[C@@H]1CN(C(=O)Cc2sc(C)nc2C)CCO1` the “% Inhibition” value was 0% and the Z score was -0.07.
`Cc1cc(N2CCN(C(=O)C(C)(C)C)CC2)nc(N2CCOCC2)n1` was tested, and the “% Inhibition” value was -9% and the Z score was 1.57.
In the case of `COc1ccc(OCc2cc(C(=O)NC3(C(C)C)CC3)n[nH]2)c(Cl)c1`, the “% Inhibition” value is reported as -4% and the Z score is reported as 0.42.
For `CO[C@@H](CNC(=O)c1cccc(F)c1F)C(C)(C)C`, the “% Inhibition” value was -4% and the Z score was 0.52.
For `CC(C)S(=O)(=O)CC(=O)NC1CC2CCC1C2` (stereo not drawn), the “% Inhibition” value was -10% and the Z score was 0.87.
